Laboratory results taken from article PMC5868729 (Angewandte Chemie (International ed. in English), 2015).

Tests used:
MDM2 = MDM2 (Homo sapiens, UniProt Q00987); assay: thermal shift in OCI/AML-2 cell lysate; type: binding; details: OCI/AML-2 lysate, Figure 5b
[1] = system: p53 activation in T22 cell reporter assay; assay: p53 reporter assay in T22 cells, purified/pre-stapled peptides and controls
T22 cells = assay: uptake by confocal microscopy in T22 cells; type: cell-based; details: live T22 cells, TAMRA-E1 at 20 μM (Figure 5c)
LDH leakage assay = type: cell-based; details: Figure S9.1.1
[2] = aggregation in solution by gel filtration and UV/Vis spectroscopy; type: physicochemical; details: Figures S10.1.1, S10.1.2
chymotrypsin = chymotrypsin proteolytic stability assay; type: in vitro ADME; details: Figure 5d

UniProt Q00987, sequence (Q00987 whole entry): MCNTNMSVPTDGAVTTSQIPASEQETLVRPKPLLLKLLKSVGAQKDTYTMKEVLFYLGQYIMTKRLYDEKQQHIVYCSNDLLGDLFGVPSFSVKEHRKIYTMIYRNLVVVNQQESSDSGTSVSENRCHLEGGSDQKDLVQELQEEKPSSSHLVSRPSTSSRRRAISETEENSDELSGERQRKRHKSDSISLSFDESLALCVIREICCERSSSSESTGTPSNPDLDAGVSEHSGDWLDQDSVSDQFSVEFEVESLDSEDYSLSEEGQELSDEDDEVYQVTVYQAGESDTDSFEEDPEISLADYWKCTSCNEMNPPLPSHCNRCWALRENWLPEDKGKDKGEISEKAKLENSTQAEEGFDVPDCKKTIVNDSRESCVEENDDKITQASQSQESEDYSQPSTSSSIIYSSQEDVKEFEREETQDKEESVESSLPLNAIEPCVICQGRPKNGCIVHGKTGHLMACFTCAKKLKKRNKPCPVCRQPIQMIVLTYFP

With COc1ccc(C2=N[C@@H](c3ccc(Cl)cc3)[C@@H](c3ccc(Cl)cc3)N2C(=O)N2CCNC(=O)C2)c(OC(C)C)c1 [Nutlin-3, reference compound] the “stabilization of MDM2 in thermal shift” value (MDM2) was “increased stabilization of MDM2”.
In the case of CC(=O)N[C@@H](CCC(=O)O)C(=O)N[C@H](C(=O)N[C@@H](Cc1ccccc1)C(=O)N[C@H]1CCCn2nnc3c2-c2ccccc2-c2nnn(c2-c2ccccc2-3)CCC[C@@H](C(=O)N[C@@H](CCC(=O)O)C(=O)N[C@@H](CC(N)=O)C(N)=O)NC(=O)[C@H](CC(C)C)NC(=O)[C@H](CC(C)C)NC(=O)[C@H](CCCNC(=N)N)NC(=O)[C@H](Cc2c[nH]c3ccccc23)NC(=O)[C@H](CC(C)C)NC(=O)[C@H](CC(=O)O)NC1=O)[C@@H](C)O [A1], the “activation of p53 in T22 cell reporter assay” value ([1]; pure stapled peptide, up to 100 μM, fold activation over 1% DMSO) is reported as “did not induce activation of p53”.
With CC(=O)N[C@@H](CC(C)C)C(=O)N[C@H](C(=O)N[C@@H](Cc1ccccc1)C(=O)N[C@H]1CCCn2nnc3c2-c2ccccc2-c2nnn(c2-c2ccccc2-3)CCC[C@@H](C(=O)N[C@@H](CO)C(=O)N[C@@H](C)C(=O)N[C@@H](C)C(N)=O)NC(=O)[C@H](CC(C)C)NC(=O)[C@H](CCC(N)=O)NC(=O)[C@H](C)NC(=O)[C@H](Cc2c[nH]c3ccccc23)NC(=O)[C@H](Cc2ccc(O)cc2)NC(=O)[C@H](CCC(=O)O)NC1=O)[C@@H](C)O [E1] the cellular uptake (T22 cells) was “observed”, the non-specific toxicity (LDH leakage assay) was “did not exhibit non-specific toxicity” and the “stabilization of MDM2 in thermal shift” value (MDM2) was “increased stabilization of MDM2”. For the same molecule, the aggregation in solution [2] was “not observed to aggregate”, the proteolytic stability (chymotrypsin) was “significantly improved proteolytic stability” and the “p53 activation by purified pre-stapled peptides, activity ranking” value ([1]; isolated stapled peptides in reporter assay, Figure 3b, Figure S11.2.1) was “greatest response”.
